Data: the supplement of paper PMC11417369
The other results are listed elsewhere or left out.

These sequences were tested on PfSIP2 AP2 domain 1 (GST-tagged) (assay: gcPBM binding intensity (ln(normalized median fluorescence intensity)); higher = stronger DNA binding).
Summary of the method: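 DNA-binding domains from P. falciparum, fused to GST and produced in E. coli, were put on an Agilent 4 × 180k double-stranded probe array for 1 h in 1× PBS holding 1% milk, 0.2 mg/ml BSA, 0.5% salmon testes DNA and 0.03% Triton X-100. Probes were primer-extended, 36 bp long and drawn from intergenic genomic regions, with negative controls included. After Alexa488 anti-GST antibody detection and a 488 nm scan, binding intensity was set as the highest Masliner-normalised natural-log median intensity across replicate spots of either probe orientation.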

Sequence | gcPBM binding intensity (ln)
AGGTATATATACATATGTACGTATATATATATATAT [XGTACX_site5115] | 9.43
TTTAAAAATAAAAGTACACACATAAACATATTACAC [CACACA_site1428] | 7.36
TATAATACAACATGCACACATATATATGTGAATCTC [CACACA_site2490] | 7.18
TTATATAAATTATTTACACACAAACATTTATACTTT [CACACA_site3449] | 7.07
TTTCTAATTTATATCACACACATATTTATATAGTAA [CACACA_site6813] | 6.95
GGCGTATGTGTATATACACACCCACGTATATAAATA [CACACA_site7489] | 7.08
TATTCCCTTCTTCCTTCTGTTTTTGATATTAAAGGG [GTGCAC_negctrl_site270] | 6.83
ATACTTTATTCGTTAGCACACAATTCAAGTTGATTC [CACACA_site1123] | 6.92
AAGATACCCCAAAATTGTACATATTAAAATAATAAA [XGTACX_site3603] | 7.09
AAAAAAAAAAATAAATAAATAAATAAATATATATAT [TGCATGCA_negctrl_site468] | 8.33
TATATATACATATACACACATACGTACATACATATA [CACACA_site3585] | 7.42
TACATACATATATATACACACATATATAATATATAT [CACACA_site388] | 7.4
ATATTCATATATACTTCACACACATTTTATCATTCA [CACACA_site8784] | 6.92
ATGAAAGTAAGACATGCATGGAATTTTTTTTATTAG [TGCATGCA_site348] | 6.61
GGAATATTTTATGAGTGTACATTTTTTTTTTTTTTT [XGTACX_site2370] | 7.31
TTTCTTTTTTTTTTTTTTTCTTTTTTTTTTTTTTTC [CACACA_negctrl_site1025] | 6.74
ATAATCCAACTTTGAGTGCGTGGTGTTTTTTTTTTC | 7.08
AAGTAAAATAAGTATACACACATAAATATATATATA [CACACA_site685] | 8.74
TATAATAATACGTATTGTACTATTAGGTTAATTCGT [XGTACX_site264] | 6.96
TTTTCTTGTAAATTACGTACGAATGTGTAGAGAAAT [XGTACX_site1339] | 7.65
TCTATAAAGGAATATACACACATATATATATATATA [CACACA_site410] | 9.57
ACTTGTAAGAAACACACACACACACCCATATATATA [CACACA_site796] | 7.69

Sequence | gcPBM binding intensity (ln)
ATCCTCTTTACAATATGTACATAAATATATATTTAT [XGTACX_site8001] | 7.58
TATATATATAAATACACACACATATATATATATATA [CACACA_site4867] | 9.67
TATTTATTTATTTATTTATTTATTTATTTATATTTA [CACACA_negctrl_site398] | 7.21
TATATATTTTTATTATGTACATATTAACAATGTGTT [XGTACX_site879] | 7.18
TAAAATATAAAACACACACACATATATATATATATT [CACACA_site224] | 7.38
TTTGAGATAAAAGACTGTACTTAGAATGTATAAAAA [XGTACX_site203] | 6.88
AAAAAAAAAAAAAACTGTACCAAAAAGAATATATAC [XGTACX_site8345] | 7.15
TTTAATTTTATATAGAGTACAAAAAAATAGAAAGAT [XGTACX_site3870] | 7.88
ATATATATATATATATGTACATAAATATTTTAAAAT [XGTACX_site4980] | 9.67
TACTCCTTAAATATATGTAAAGGAAGAAAAAAAAAA [XGTACX_negctrl_site306] | 6.83
TTGTTTCTACAATTTAATAAAATACGTTTTCAAAAA [XGTACX_negctrl_site377] | 6.74
ACAATAAAAATAAAAAGTACAAATAAAAAAAATAAA [XGTACX_site6718] | 7.15
AATATATGTTTAATTTCACACACAAATATACATTTT [CACACA_site9385] | 7.04
ATATATATATATATATGTACACATATACGCTTTTTC [XGTACX_site3838] | 9.62
AACAAATTTATCCAAAGTACAAAATATCATTTCTTA [XGTACX_site4543] | 6.76
AACAACATGTAGACGCGTACCAACATCAGATCCTAT [XGTACX_site4071] | 6.99
ATTATAATTATATATGCATGTAGCATTTTCTATTTT [TGCATGCA_site66] | 6.66
ATTTTATATAATACATGTACAAAAGTTTAAATTTAT [XGTACX_site6196] | 7.13
TATAAATACTAAAAAAGTACAAAATTTCATAAAAAA [XGTACX_site2709] | 6.93
TTATAATATAGCAATTATTAAATAGGATCAAATGAA [CACACA_negctrl_site632] | 6.77
TTCTTTATTTATCATTATAAGAAGAGTTGATTTGTT [XGTACX_negctrl_site555] | 6.91
TATTTGTAAATTATTTGGGTGTGTAGGGGATATTCT [XGTACX_negctrl_site204] | 6.97

Sequence | gcPBM binding intensity (ln)
CGTTCATATTATTATAGTACATATTATTATAGTTTT [XGTACX_site1550] | 7.12
TTTTTTTTTTTATTTGCATGCGGTGTTCATAATATT [TGCATGCA_site199] | 6.88
TTGGTGGATAAATTTACACACAATAACTTTCGTTCA [CACACA_site6358] | 6.75
AGAAGAAAAGTAAAAAGTACATTATTCATGGCCTAT [XGTACX_site5601] | 6.63
ATATAAGAAATAAAGAAAAATGTGTTTTTTTTTTTT [XGTACX_negctrl_site396] | 6.6
AGAGCTGTTTTTTATGCATGTAGTTTAGAAAATACA [TGCATGCA_site257] | 6.79
TTTATCTTATTTTTATGTACTTATTTTATAAAAAAA [XGTACX_site7730] | 7.67
TTTTTCCTAACATATTATATACTTGAATATTTATTA [CACACA_negctrl_site156] | 6.85
AAACAAATATTTATCACAATGTCATTTTGTTAACAT [GTGCAC_negctrl_site171] | 6.92
CTTTGTAGTATATTAACACACAACTGTTTATAATAT [CACACA_site6038] | 7.05
TTCTTTAAAAAATTCGATAAAAAAAAAAAAAGAAAA [CACACA_negctrl_site242] | 6.8
TATATACTCATGCGCACACACAAGTGGGAAATTTGG [CACACA_site5056] | 7.42
ATATACATATATATTGCATGCAGAGAGTATTTATAA [TGCATGCA_site646] | 6.94
ATATATATATATATTGTGCACAAAAAAAAATAAGCA | 9.29
ATATATTATAGGTACACACACATATAAGGGATTATA [CACACA_site6154] | 7.22
GGAAAGACAGTTCACAGTACCCAGGAAATCTACGGA [XGTACX_site1996] | 6.88
TTATTAAATATGTACACACGTACATTTTATAAATGA [CACACA_site2387] | 7.3
TATATATATATTTAGTGTACTTAAAAAAAATAATAA [XGTACX_site5454] | 8.47
ATAATAATAAAATATATATACAAAGGTGAAATTATA [TGCATGCA_negctrl_site197] | 7.17
TATTTTTTTTTCCATTGTACATTTTTGATATTTTTC [XGTACX_site744] | 6.79
TTTTATTATAATAATTGTACAAAAATTATTTAATAT [XGTACX_site6054] | 6.9
TTAATTTATTATCTTTGTACACAATTAAAAAAAAAA [XGTACX_site3469] | 6.78

Sequence | gcPBM binding intensity (ln)
ATAAATATACATTATACCGACCATGTGGATATTATA [XGTACX_negctrl_site241] | 6.93
AAAAAAAAAAAAAAAAGTACAAGCATTGCGTTTTAA [XGTACX_site6075] | 7.5
AGAAAAAAAAAAAAAAAAATATATATATATATATAT [TGCATGCA_negctrl_site411] | 8.98
AAAAAAAAAAAAAAAACACACATACACGCACGCACA [CACACA_site7569] | 7.94
GTATATATATACCATTGTACTTTCGTAAAAATATTT [XGTACX_site4846] | 7.12
TTTTGGTTTTGTTCTACACACATAAAAAAAAAAAAG [CACACA_site2276] | 7.18
ATATATCAATATGGAATATATATATATATATATATA [TGCATGCA_negctrl_site502] | 9.68
TTTCTATTTATTAATACATGCAAAATAAAGTAAAGT [TGCATGCA_site209] | 7.44
ATATATATAAATAAATGTACATAAATAATATATTAT [XGTACX_site5419] | 7.52
TATATATATATATATATATTTATGTATTTATTTAAT [TGCATGCA_negctrl_site179] | 9.49
TTATTTTTATATTTTAATTTTAAAAAAATTTTAATT [CACACA_negctrl_site777] | 6.74
ATTATACATATTATATGTACATATATAAATAAATAA [XGTACX_site7076] | 7.18
ATTTTTTATGTTAATGCATGCTCATGTGTATTTCAT [TGCATGCA_site751] | 7.05
AAATATAACATCATCACACACATATACTTTATATGC [CACACA_site1126] | 7.01
AGCTTCATATTATGGAGTACTATTAAAAATAAATAA [XGTACX_site2649] | 6.98
TAATTAGATTATTTTTGTACATATTATTATAGGTTA [XGTACX_site2077] | 6.93
AGATATTATAAAATATGTACATATATATATATATAT [XGTACX_site2088] | 9.12
AAAGTAATAATGATTTGTACATATATATATATATAT [XGTACX_site8821] | 9.09
TTATCTTTTTTCGTTTGTACGTAACCATATTACTAT [XGTACX_site8853] | 7.11
ATGCAAATGTGCATCACACACACTAATGGGTATGTA [CACACA_site2893] | 7.47
GGAATATATATACATACACACATATATATATATATA [CACACA_site1666] | 9.52
AAAAATAATTATTCGTGTACAAAAAAAAAAATATAA [XGTACX_site439] | 7.09
